{"source": "PubChem BioAssay (NCI)", "note": "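Protocol summary: plate cells (96-well), add compound at 5 concentrations, incubate 48 h, interpolate endpoints linearly. GI50: concentration for 50% inhibition of growth. TGI marks complete inhibition of growth.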", "data": [{"system": "NCI-H322M lung", "assay": "growth of human tumour cells (NCI), 48 h", "units": {"GI50": "µM", "TGI": "µM"}, "values": [{"smiles": "CN1CCN(c2nc(-c3cnc4ccccc4n3)cc3ccccc23)CC1", "GI50": "> 45.9", "TGI": "> 100"}, {"smiles": "CC1OC(O[C@@H]2[C@H](O)C(CO)OC(O[C@H]3COC(O[C@H]4CC[C@]5(C)[C@H]6CC[C@]78OC[C@@]9(CCC(C)(C)C[C@H]97)[C@H](O)C[C@@]8(C)[C@]6(C)CC[C@H]5C4(C)C)[C@@H](OC4OC(CO)[C@@H](O)[C@@H](O)[C@@H]4O)[C@@H]3O)[C@H]2OC2OC[C@@H](O)[C@@H](O)[C@@H]2O)[C@@H](O)[C@@H](O)[C@H]1O", "note": "(stereo partly drawn)", "GI50": 2.41, "TGI": 4.49}, {"smiles": "Cn1ncc2ncc(-c3ccc4ncc(C#N)c(N5CCc6cc(F)c(Cl)cc65)c4c3)cc21", "GI50": 4.49, "TGI": "> 100"}, {"smiles": "O=c1oc2ccc(-c3ccc(F)cc3F)cc2c(=O)n1-c1ccc(F)c(F)c1", "GI50": 1.45, "TGI": 17.7}]}]}
